Publication PMC7819943, “Rice protein-binding microarrays: a tool to detect cis-acting elements near promoter regions in rice”
The list shows a part of the results.

Target: T1, OsWOX13 (Oryza sativa, UniProt Q5QMM3 1-267)
T1 sequence: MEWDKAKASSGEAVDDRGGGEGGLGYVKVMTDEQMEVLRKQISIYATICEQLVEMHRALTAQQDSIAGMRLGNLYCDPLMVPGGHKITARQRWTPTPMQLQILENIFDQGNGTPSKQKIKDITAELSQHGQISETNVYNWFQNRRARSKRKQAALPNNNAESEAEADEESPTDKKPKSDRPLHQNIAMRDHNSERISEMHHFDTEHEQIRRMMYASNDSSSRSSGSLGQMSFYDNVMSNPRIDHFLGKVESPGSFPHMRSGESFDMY
Experiment: protein-binding microarray (RPBM); PBS, 2% BSA, 51.3 ng/ul salmon testes DNA, 50 uM zinc acetate, 200 nM TF, 25 C, 1 h; high values mean tight binding
Settings: protein: recombinant; tags: N-terminal polyhistidine and DsRed monomer fusion (pET32a); label: CyDye5-dUTP incorporated in the synthesized complementary strand; 3' TTTTT single-stranded linker to array surface; dsDNA, one strand shown
Summary of the method: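 Binding signal here means per-feature fluorescence intensity in arbitrary units. The values were read on an Axon 4000B scanner after a custom Agilent array, double-stranded by primer extension with Cy5-dUTP, was incubated with 200 nM protein at 25 °C for 1 h in PBS with 2% BSA, salmon testes DNA and 50 µM zinc acetate, then washed. The proteins were transcription factors with an N-terminal polyhistidine tag and DsRed, expressed in E. coli BL21-CodonPlus and purified on Ni–NTA.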

Sequence | binding signal
TACACTGATTAGTGGATGATGATATAGTATCTTTGTATGTCGGAGTCACCTAGTGCAG | 45600 fluorescence intensity (a.u.)
TCCAGTCCAATCAGCCCACCATAATTTGGGCCGGAATAAGCGGAGTCACCTAGTGCAG | 17600 fluorescence intensity (a.u.)
ATATGTGATGGGCAATAAAGTTACTTTGACGATGGTATGCCGGAGTCACCTAGTGCAG | 7840 fluorescence intensity (a.u.)
TTGGTAATTTTCGACTGATACTGCTCTTATTATATTCGTTCGGAGTCACCTAGTGCAG | 5090 fluorescence intensity (a.u.)
CCCTTTACTTGATTTTCTGCTGGTTGGTTTATCTTTTATTCGGAGTCACCTAGTGCAG | 6590 fluorescence intensity (a.u.)
CCCGACGTTGTTGATTGCTTATCCCACTTGTGCTATTTGCCGGAGTCACCTAGTGCAG | 18600 fluorescence intensity (a.u.)
CATGATTTTGAATGCATAACCTAAACATATAGCAAACCAGCGGAGTCACCTAGTGCAG | 17100 fluorescence intensity (a.u.)
ACGCCGAAAATCACTGTCATAATTAATTTGAGAACTAGAACGGAGTCACCTAGTGCAG | 18500 fluorescence intensity (a.u.)
CCAATAAAATTTCTATTAAACTGAGAGAAATGCTACCCTTCGGAGTCACCTAGTGCAG | 3510 fluorescence intensity (a.u.)
TTCAAATGGAGAACTGACGAACTTGTAATATGACGTCAGTCGGAGTCACCTAGTGCAG | 4330 fluorescence intensity (a.u.)
CTGATTGGAAATATTTTGAAATTAACTACACACAAAATAACGGAGTCACCTAGTGCAG | 9930 fluorescence intensity (a.u.)
ACCAATCACAGGCCACAGCCGGCGCCGTCGCCTTCCTTCTCGGAGTCACCTAGTGCAG | 3920 fluorescence intensity (a.u.)
ATATTTCGTCAAGTTAAATTTGAGTGAGAACAAAATCCAACGGAGTCACCTAGTGCAG | 3410 fluorescence intensity (a.u.)
CTCTTAATTTAGGGGTGGCTCATCATCTCTCTCCTCACTTCGGAGTCACCTAGTGCAG | 12400 fluorescence intensity (a.u.)
GCCGCCAAATCAAATGTGGATGATTGAAATAGCCGTGGTACGGAGTCACCTAGTGCAG | 32500 fluorescence intensity (a.u.)
CCGATATGATTTTAGGTCCCCGCCCAAGTGCACATATATGCGGAGTCACCTAGTGCAG | 3190 fluorescence intensity (a.u.)
ATTGTAATTAATACATGACTACATATGTTTCTATATGCATCGGAGTCACCTAGTGCAG | 28200 fluorescence intensity (a.u.)
TAATATTATATTTAATTTGCATTATTTTAAATATAGTACCCGGAGTCACCTAGTGCAG | 3730 fluorescence intensity (a.u.)
TAATTAATAATCTAGTTAATTAGCCGTCTCCGGAACAAATCGGAGTCACCTAGTGCAG | 13300 fluorescence intensity (a.u.)
CTTTAATTTCTTCTTCTTTTCCACATATAATAATAATATACGGAGTCACCTAGTGCAG | 4030 fluorescence intensity (a.u.)
GCAAGATTGGACGGTCCAGATCTCTAAAGTACGTCAGCACCGGAGTCACCTAGTGCAG | 20500 fluorescence intensity (a.u.)
GAGGTAAATTTGATCAGGCATCTTCTTGCATTGGTAGCAACGGAGTCACCTAGTGCAG | 7700 fluorescence intensity (a.u.)
CAGAAATTGTTTTCATTTATTTTATTGTCTTTATATGACTCGGAGTCACCTAGTGCAG | 11300 fluorescence intensity (a.u.)
ATATCAATCCGATGATATTAATTTTAGCAAATAAAATTTACGGAGTCACCTAGTGCAG | 5130 fluorescence intensity (a.u.)
ACTAATGATGGATTAATTAGGCTTAATATATTCATCTCGCCGGAGTCACCTAGTGCAG | 58100 fluorescence intensity (a.u.)
GTAAGTTACAGTAATTACATTATGATTGTACTATAATTACCGGAGTCACCTAGTGCAG | 25900 fluorescence intensity (a.u.)
ATAGATTTAACACTAAATTTATCACAAAACTACAAATTTACGGAGTCACCTAGTGCAG | 7720 fluorescence intensity (a.u.)

Sequence | binding signal
CCTATATTTATATTGATGTTAATGAATCTAGACATATATACGGAGTCACCTAGTGCAG | 3560 fluorescence intensity (a.u.)
TAATAATTGGTCGTGAAATTCTCAAAAGTTTTGCTCATAGCGGAGTCACCTAGTGCAG | 11600 fluorescence intensity (a.u.)
ATTAATTTCGCTTGCTAACACGAGTTTAATCTGCCAATTTCGGAGTCACCTAGTGCAG | 4020 fluorescence intensity (a.u.)
GTACCACTTGATTTGTGTCTAGTGTAAATCGCATTAGCCACGGAGTCACCTAGTGCAG | 14700 fluorescence intensity (a.u.)
CTAATTGGTTGGGTGGTTTTAGCTAGGGGATGCCTAAACGCGGAGTCACCTAGTGCAG | 22600 fluorescence intensity (a.u.)
GTAACAGAAACAGATTGGTACGACTACGACGCCCTGTACCCGGAGTCACCTAGTGCAG | 33400 fluorescence intensity (a.u.)
ATATTGAATGATTAGGGAATTTAGGCTATATATTGAAGCCCGGAGTCACCTAGTGCAG | 40200 fluorescence intensity (a.u.)
TGACTAAATTGCCCCTGAAGCATTTTCATCTCTGCTCCTCCGGAGTCACCTAGTGCAG | 8630 fluorescence intensity (a.u.)
CGTGATCGATCGATCGGTTGATTGATTGCTCAGGGCCCAACGGAGTCACCTAGTGCAG | 42400 fluorescence intensity (a.u.)
AGATATTGATGATTTGTTGTTGGGCTCGGGCGCTCAGCCACGGAGTCACCTAGTGCAG | 20200 fluorescence intensity (a.u.)
ATGATTGAATAGAAAAGAGAGTGAGAGAAGAGAGTTTAATCGGAGTCACCTAGTGCAG | 14700 fluorescence intensity (a.u.)
AGGTTGACAGGAGAGAGGAGGCGGCGCGGGCGAGGGAGCTCGGAGTCACCTAGTGCAG | 7270 fluorescence intensity (a.u.)
ATATAATTATGTTCCAAGTGGCATTACGATGGTTCTTTTCCGGAGTCACCTAGTGCAG | 16700 fluorescence intensity (a.u.)
AACCCCGCAGCCAATCAGAATCAGCTTTCCTCCTTGCCCCCGGAGTCACCTAGTGCAG | 3300 fluorescence intensity (a.u.)
GGTTATGGATAATCAATTTACGTTGTGCTCAGCTAACAATCGGAGTCACCTAGTGCAG | 6820 fluorescence intensity (a.u.)
AGTTTCATTAAATTTAATATTAAACATATTTTGATAATATCGGAGTCACCTAGTGCAG | 5680 fluorescence intensity (a.u.)
TCTATCCCAATTAATCATACCCTAAAATTTGTACGTCTTACGGAGTCACCTAGTGCAG | 4670 fluorescence intensity (a.u.)
AAAATTGAATTGTCAAAGTCGGATGAAACCATGTGTTCCCCGGAGTCACCTAGTGCAG | 26900 fluorescence intensity (a.u.)
GATGTTTTGACTTTGATTAAAGTCAAACTAAGTTTGGCTACGGAGTCACCTAGTGCAG | 3970 fluorescence intensity (a.u.)
CTTGGACGATGCTGGTTAATTAATTAGCTAGAGGTAGTAGCGGAGTCACCTAGTGCAG | 11000 fluorescence intensity (a.u.)
ACCAGAATATTTGACTGGTAATTTCTATGTAATATGTTAGCGGAGTCACCTAGTGCAG | 10800 fluorescence intensity (a.u.)
CCTAACAGCTAATAATAAACAGATAGAAAGATGCTCTGTCCGGAGTCACCTAGTGCAG | 24000 fluorescence intensity (a.u.)
ATGATAGACTTGAACAGGAAAGGTCAAGCAAGAGCTAATACGGAGTCACCTAGTGCAG | 5060 fluorescence intensity (a.u.)
TTAATTGCTAAGCTGTTCCGTCCATGGTTCACACTTCACACGGAGTCACCTAGTGCAG | 10600 fluorescence intensity (a.u.)
TATATATATATATATATATATATATATATATATATGAAAGCGGAGTCACCTAGTGCAG | 22400 fluorescence intensity (a.u.)
TCTTGCAAATTTAAATTTCAAGTTGAAAATTTTCAAAGTTCGGAGTCACCTAGTGCAG | 7610 fluorescence intensity (a.u.)
GCTTTCAATAAAACTTCATTAATTGAGGCTAAAATGTTACCGGAGTCACCTAGTGCAG | 5100 fluorescence intensity (a.u.)
